# Assay results: publication PMC4336329 (PLoS ONE, 2015)
# In all, about 310,000 compounds went through this assay and about 14,000 (4.5%) showed an effect of 50% or more. Effects have a minus sign here. The list shows a part of the results.
# Target: human ether-à-go-go-related gene (hERG) potassium channel (human, UniProt Q12809)
# Test: primary screen, population patch clamp on CHO cells stably expressing hERG
# 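Also: peak tail current of the secondary pulse compared with the same well before compound.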
# human ether-à-go-go-related gene (hERG) potassium channel, sequence (Q12809 whole entry, looked up): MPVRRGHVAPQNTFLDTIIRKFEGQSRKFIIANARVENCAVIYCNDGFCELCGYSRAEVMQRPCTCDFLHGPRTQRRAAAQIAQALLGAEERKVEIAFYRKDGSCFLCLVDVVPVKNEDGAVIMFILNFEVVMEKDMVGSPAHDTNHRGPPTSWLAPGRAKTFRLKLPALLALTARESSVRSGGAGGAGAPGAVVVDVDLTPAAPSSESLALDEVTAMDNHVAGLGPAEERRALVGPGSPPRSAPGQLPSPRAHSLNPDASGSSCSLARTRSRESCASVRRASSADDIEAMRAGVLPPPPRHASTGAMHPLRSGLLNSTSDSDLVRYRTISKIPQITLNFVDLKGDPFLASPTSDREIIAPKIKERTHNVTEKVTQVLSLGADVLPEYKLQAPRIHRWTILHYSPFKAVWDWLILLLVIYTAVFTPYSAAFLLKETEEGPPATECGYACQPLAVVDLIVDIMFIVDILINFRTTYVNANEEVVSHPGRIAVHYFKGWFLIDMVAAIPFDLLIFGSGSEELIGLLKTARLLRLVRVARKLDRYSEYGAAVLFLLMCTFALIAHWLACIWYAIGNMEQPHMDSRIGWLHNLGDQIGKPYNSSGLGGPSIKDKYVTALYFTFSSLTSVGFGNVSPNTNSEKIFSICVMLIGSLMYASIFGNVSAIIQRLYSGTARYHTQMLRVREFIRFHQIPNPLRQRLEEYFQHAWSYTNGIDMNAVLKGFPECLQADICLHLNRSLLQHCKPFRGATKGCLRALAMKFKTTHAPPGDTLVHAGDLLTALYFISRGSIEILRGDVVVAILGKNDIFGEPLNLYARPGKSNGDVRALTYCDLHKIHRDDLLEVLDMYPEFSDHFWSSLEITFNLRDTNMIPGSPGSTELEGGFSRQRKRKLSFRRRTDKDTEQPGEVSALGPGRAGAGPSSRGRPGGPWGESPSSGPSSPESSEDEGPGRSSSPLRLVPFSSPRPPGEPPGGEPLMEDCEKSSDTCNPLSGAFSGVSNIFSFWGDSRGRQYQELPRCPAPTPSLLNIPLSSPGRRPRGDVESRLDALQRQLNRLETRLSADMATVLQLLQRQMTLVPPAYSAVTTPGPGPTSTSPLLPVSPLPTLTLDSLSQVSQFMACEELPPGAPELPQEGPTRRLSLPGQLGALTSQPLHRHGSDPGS
row,SMILES,"hERG current change (%, negative = inhibition) at 10uM [%]"
1,CNC(=S)NNC(=O)c1ccc(=O)n(Cc2cccc(C(F)(F)F)c2)c1,17.2
2,O=C(c1ccccc1-c1nc2ccccc2[nH]1)N1CCCCC1,5.53
3,COc1cccc(C(=O)Nc2cc(S(=O)(=O)N3CCCCC3)ccc2OC)c1,-13.6
4,COCCCNC(=O)CSc1nc2ccccc2c(=O)n1CCCC(=O)NCC1CCCO1 (stereo not shown),-0.988
5,CCn1c(N2CCN(C(=O)/C=C/c3ccccc3)CC2)nc2ccccc21,-80.8
6,CC1=C[C@@H](C)[C@@H](c2ccc(C(F)(F)F)cc2)OC1=O,7.01
7,CCN(CC)CCCNC(=O)c1nn(-c2cccc(OC)c2)c(=O)c2ccccc12,-70.6
8,Nc1ccc(S(=O)(=O)c2ccc(N)cc2)cc1,6.8
9,CC(Sc1nc2ccccc2s1)C(=O)NC1CCCc2ccccc21 (stereo not shown),-21.9
10,CS(=O)(=O)N1CCc2nc(-c3ccccc3)sc2C1,-25.7
11,CCCNS(=O)(=O)c1ccc(CCC(=O)Nc2ccc3c(c2)OCCO3)cc1,-7.35
12,S=c1[nH]nc(-c2cccnc2)o1,18.1
13,CCOC(=O)c1ccc(N2C(=O)CC(Nc3ccc(CCO)cc3)C2=O)cc1 (stereo not shown),-25.5
14,O=C(O)CN1C(=O)/C(=C\c2ccc(OC(=O)c3ccco3)cc2)SC1=S,5.73
15,CSCCC(=O)N1CCCC(CNC(=O)c2ccc(-c3ccccc3)cc2)C1 (stereo not shown),-73.2
16,CCC(=O)N1c2ccc(S(=O)(=O)N3CCN(CC)CC3)cc2CC1C (stereo not shown),16.7
17,CCCN(CC(=O)Nc1ccccc1C)C(=O)CSc1ccccc1C,7.42
18,Cc1ccc(SCCN2CCC(C)CCC2=O)cc1 (stereo not shown),-25.6
19,COc1ccccc1/C=C/C(=O)Nc1nc(N)n(-c2ccccc2)n1,-33.8
20,O=C(CCc1ccccc1)NCCc1nc2ccccc2[nH]1,28.7
21,CCN1CCN(C(=S)NCCOC)CC1.O=C(O)C(=O)O,16.2
22,O=C1C(=O)N(CCO)C(c2ccccc2)/C1=C(\O)c1ccccc1 (stereo not shown),8.55
23,CC(=O)Nc1ccc(C(=O)N(C2=NC(C)CS2)c2ccc(Cl)cc2)cc1 (stereo not shown),-7.39
24,CCOc1ccc(S(=O)(=O)N(C)CC(=O)NCCN2CCOCC2)cc1,13.9
25,CCCCOC(=O)c1ccc(NC(=O)C(=O)NCc2ccco2)cc1,13.2
